The list shows a part of the results. These are further read-outs of the screen, such as a control signal, another cell line or another target. No call is given for them. For part of these data: Compounds called inactive in the main read-out are mostly missing here. Words in brackets tell the shape of the fitted curve; partial curves, single points and poor fits give uncertain potencies.
Experiments:
[1] = qHTS drug screen for cell cycle checkpoint inhibitors in PARPi-resistant BRCA-mutant ovarian cancer cell lines. (AID 1963452); details: PEO1/OlaR viability, CellTiter-Glo luminescence, 96 h
How it was run: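 PEO1, PEO4 and PEO1/OlaR ovarian cancer cells, 600 per well, exposed 96 h at 37C to a dilution series. Viability read by CellTiter-Glo luminescence, normalized to DMSO and empty wells; activity summarized as Z-AUC.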

[2] = qHTS for identification of novel therapeutic agents for treatment of microphthalmiaassociated transcription factor (MiT) renal cell carcinoma (RCC) (AID 1963991); details: CellTiter-Glo, 48 h; for z-score: stronger effect = lower value
How it was run: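 Curves over 11 concentrations were fitted to CellTiter-Glo luminescence, scaled between empty wells (0%) and DMSO (100%) viability. Cells were UOK109, UOK124 and UOK145 TFE3-fusion RCC lines at 500/well, exposed 48 hours at 37 C.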

[3] = measured here: PEO1 parental viability
[4] = TFE3-RCC UOK109 viability, measured here: UOK109 Z-AUC
[5] = TFE3-RCC viability, measured here: UOK124 Z-AUC
[6] = TFE3-RCC viability, measured here: UOK124 cell viability
[7] = TFE3-RCC viability, measured here: UOK145 Z-AUC
[8] = TFE3-RCC viability, measured here: UOK145 cell viability
Tags tell the direction and shape of the fitted curve.

Structure (SMILES)	AC50 [1, 3]	AC50 ([1]; measured here: PEO4 viability)	z-score [2, 4]	z-score [2, 5]	AC50 [2, 6]	z-score [2, 7]	AC50 [2, 8]
COc1cc(C(=O)NC2CCN(C)CC2)ccc1Nc1ncc2c(n1)N(C1CCCC1)CCC(=O)N2C(C)C	24.5 µM [falling, single point]	24.5 µM [falling, single point]	-1.09	-0.619	5.26 µM [falling, partial curve]	-1.08	11.8 µM [falling, partial curve]
Cc1ccc(NC(=O)c2ccc(CN3CCN(C)CC3)cc2)cc1Nc1nc(-c2cccnc2)cs1	15.5 µM [falling, single point]	17.4 µM [falling, single point]	0.0509	0.0188	18.7 µM [falling, partial curve]	0.393	26.4 µM [falling, partial curve]
COc1ccc2c(c1)c(C1=C(c3c[nH]c4ccccc34)C(=O)NC1=O)cn2CCCN(C)C	3.47 µM [falling, partial curve]	15.5 µM [falling, partial curve]	-0.00317	-0.748	16.6 µM [falling, partial curve]	0.28	23.5 µM [falling, partial curve]
Cc1cccc(Nc2nc(N[C@@H]3CCCC[C@H]3N)ncc2C(N)=O)c1	19.5 µM [falling, partial curve, poor fit]	15.5 µM [falling, single point]	-1.4	-0.426	23.5 µM [falling, partial curve]	-0.472	10.5 µM [falling, partial curve]
C[C@@H]1COC(Nc2ccc3ncnc(Nc4ccc(OCc5nccs5)c(Cl)c4)c3c2)=N1	6.92 µM [falling, partial curve]	7.76 µM [falling, partial curve]	-1.87	-0.245	23.5 µM [falling, partial curve]	-1.26	4.69 µM [falling, full curve]
c1cc(-c2cnn3cc(-c4ccc(OCCN5CCCCC5)cc4)cnc23)ccn1	15.5 µM [falling, partial curve]	9.77 µM [falling, partial curve]	0.0878	-1.75	23.5 µM [falling, partial curve]	-0.196	16.6 µM [falling, partial curve]
COc1cc2c(Oc3ccc(-c4cnc(Nc5ccc(F)cc5)n(C)c4=O)cc3F)ccnc2cc1OCCCN1CCOCC1	6.16 µM [falling, partial curve]	5.49 µM [falling, partial curve]	0.402	0.0365	18.7 µM [falling, partial curve]	0.0576	18.7 µM [falling, partial curve]
CO[C@@H]1[C@H](N(C)C(=O)c2ccccc2)C[C@H]2O[C@]1(C)n1c3ccccc3c3c4c(c5c6ccccc6n2c5c31)C(=O)NC4	7.76 µM [falling, partial curve]	4.36 µM [falling, full curve]	-0.733	-0.701	1.32 µM [falling, full curve]	-0.367	4.18 µM [falling, full curve]
Oc1cc(-c2nc(-c3ccccc3)[nH]c2-c2ccncc2)ccc1Cl	17.4 µM [falling, partial curve]	7.76 µM [falling, partial curve]	-0.961	-0.294	16.6 µM [falling, partial curve]	0.394	16.6 µM [falling, partial curve]
Cc1ccc(C(=O)Nc2cccc(C(F)(F)F)c2)cc1-c1ccc2nc(NCCN3CCOCC3)ncc2c1	2.45 µM [falling, full curve]	6.92 µM [falling, partial curve]	0.0796	0.284	7.43 µM [falling, partial curve]	-0.643	7.43 µM [falling, full curve]
NC(=O)Nc1sc(-c2ccc(F)cc2)cc1C(N)=O	6.92 µM [falling, partial curve, poor fit]	8.71 µM [falling, partial curve, poor fit]	-1.68	-1.15	1.32 µM [falling, full curve]	-0.515	1.32 µM [falling, full curve]
CC[C@H](CO)Nc1nc(NCc2ccccc2)c2ncn(C(C)C)c2n1	24.5 µM [falling, single point]	24.5 µM [falling, single point]	0.323	-0.0134	20.9 µM [falling, partial curve]	0.0616	23.5 µM [falling, partial curve]

Source: PubChem BioAssay (NCATS)
